Experimental data: the supplement of paper PMC11876631
± gives the standard deviation of the averaged measurements. Laboratory Escherichia coli strains with one amino-acid change in an essential protein, pooled on minimal glucose agar with carbenicillin or gentamicin at twice the control MIC (plus kanamycin and chloramphenicol for the plasmids), 48 h. Fold change of barcode share against drug-free plates; higher = less susceptible. Active = above 20 in both replicates (the paper's putatively resistant). '<' = one read or none on drug, '>' = one read or none on a drug-free plate. Shares are relative, so most strains fall below 1 when a few take over. Listed are strains with at least 15 reads on both drug-free plates, and hits; most hits rest on fewer reference reads. Replicate rank correlation about 0.5. Edits are read from barcodes.

Target: Escherichia coli (laboratory strain)
Assay: barcode share on antibiotic plates over drug-free plates; higher = less susceptible
Conditions: antibiotic: gentamicin; 2× MIC (MIC 0.45 µg/mL)
Description: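 A pool of E. coli strains, each edited to carry one amino-acid change in an essential protein, was grown for 48 h on minimal glucose agar with or without antibiotic; strain barcodes were sequenced; mean of two replicates.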

| Protein | fold change of barcode share |
| --- | --- |
| ispE V146D (protein) MRTQWPSPAKLNLFLYITGQRADGYHTLQTLFQFLDYGDTISIELRDDGDIRLLTPVEGVEHEDNLIVRAARLLMKTAADSGRLPTGSGANISIDKRLPMGGGLGGGSSNAATVLVALNHLWQCGLSMDELAEMGLTLGADVPVFDRGHAAFAEGVGEILTPVDPPEKWYLVAHPGVSIPTPVIFKDPELPRNTPKRSIETLLKCEFSNDCEVIARKRFREVDAVLSWLLEYAPSRLTGTGACVFAEFDTESEARQVLEQAPEWLNGFVAKGANLSPLHRAML | > 2530 [active] |
| ispE V146P (protein) MRTQWPSPAKLNLFLYITGQRADGYHTLQTLFQFLDYGDTISIELRDDGDIRLLTPVEGVEHEDNLIVRAARLLMKTAADSGRLPTGSGANISIDKRLPMGGGLGGGSSNAATVLVALNHLWQCGLSMDELAEMGLTLGADVPVFPRGHAAFAEGVGEILTPVDPPEKWYLVAHPGVSIPTPVIFKDPELPRNTPKRSIETLLKCEFSNDCEVIARKRFREVDAVLSWLLEYAPSRLTGTGACVFAEFDTESEARQVLEQAPEWLNGFVAKGANLSPLHRAML | > 160 [active] |
| ispE L115D (protein) MRTQWPSPAKLNLFLYITGQRADGYHTLQTLFQFLDYGDTISIELRDDGDIRLLTPVEGVEHEDNLIVRAARLLMKTAADSGRLPTGSGANISIDKRLPMGGGLGGGSSNAATVDVALNHLWQCGLSMDELAEMGLTLGADVPVFVRGHAAFAEGVGEILTPVDPPEKWYLVAHPGVSIPTPVIFKDPELPRNTPKRSIETLLKCEFSNDCEVIARKRFREVDAVLSWLLEYAPSRLTGTGACVFAEFDTESEARQVLEQAPEWLNGFVAKGANLSPLHRAML | > 45.4 [active] |
| ispE F145D (protein) MRTQWPSPAKLNLFLYITGQRADGYHTLQTLFQFLDYGDTISIELRDDGDIRLLTPVEGVEHEDNLIVRAARLLMKTAADSGRLPTGSGANISIDKRLPMGGGLGGGSSNAATVLVALNHLWQCGLSMDELAEMGLTLGADVPVDVRGHAAFAEGVGEILTPVDPPEKWYLVAHPGVSIPTPVIFKDPELPRNTPKRSIETLLKCEFSNDCEVIARKRFREVDAVLSWLLEYAPSRLTGTGACVFAEFDTESEARQVLEQAPEWLNGFVAKGANLSPLHRAML | > 1390 [active] |
| ispG V84Q (protein) MHNQAPIQRRKSTRIYVGNVPIGDGAPIAVQSMTNTRTTDVEATVNQIKALERVGADIVRVSVPTMDAAEAFKLIKQQVNVPLQADIHFDYRIALKVAEYGVDCLRINPGNIGNEERIRMVVDCARDKNIPIRIGVNAGSLEKDLQEKYGEPTPQALLESAMRHVDHLDRLNFDQFKVSVKASDVFLAVESYRLLAKQIDQPLHLGITEAGGARSGAVKSAIGLGLLLSEGIGDTLRVSLAADPVEEIKVGFDILKSLRIRSRGINFIACPTCSRQEFDVIGTVNALEQRLEDIITPMDVSIIGCVVNGPGEALVSTLGVTGGNKKSGLYEDGVRKDRLDNNDMIDQLEARIRAKASQLDEARRIDVQQVEK | 183 [active] |
| ispG V122A (protein) MHNQAPIQRRKSTRIYVGNVPIGDGAPIAVQSMTNTRTTDVEATVNQIKALERVGADIVRVSVPTMDAAEAFKLIKQQVNVPLVADIHFDYRIALKVAEYGVDCLRINPGNIGNEERIRMVADCARDKNIPIRIGVNAGSLEKDLQEKYGEPTPQALLESAMRHVDHLDRLNFDQFKVSVKASDVFLAVESYRLLAKQIDQPLHLGITEAGGARSGAVKSAIGLGLLLSEGIGDTLRVSLAADPVEEIKVGFDILKSLRIRSRGINFIACPTCSRQEFDVIGTVNALEQRLEDIITPMDVSIIGCVVNGPGEALVSTLGVTGGNKKSGLYEDGVRKDRLDNNDMIDQLEARIRAKASQLDEARRIDVQQVEK | 0.00518 ± 0.0038 |
| ispG V84D (protein) MHNQAPIQRRKSTRIYVGNVPIGDGAPIAVQSMTNTRTTDVEATVNQIKALERVGADIVRVSVPTMDAAEAFKLIKQQVNVPLDADIHFDYRIALKVAEYGVDCLRINPGNIGNEERIRMVVDCARDKNIPIRIGVNAGSLEKDLQEKYGEPTPQALLESAMRHVDHLDRLNFDQFKVSVKASDVFLAVESYRLLAKQIDQPLHLGITEAGGARSGAVKSAIGLGLLLSEGIGDTLRVSLAADPVEEIKVGFDILKSLRIRSRGINFIACPTCSRQEFDVIGTVNALEQRLEDIITPMDVSIIGCVVNGPGEALVSTLGVTGGNKKSGLYEDGVRKDRLDNNDMIDQLEARIRAKASQLDEARRIDVQQVEK | 1.75 ± 1.1 |
| ispG V59Q (protein) MHNQAPIQRRKSTRIYVGNVPIGDGAPIAVQSMTNTRTTDVEATVNQIKALERVGADIQRVSVPTMDAAEAFKLIKQQVNVPLVADIHFDYRIALKVAEYGVDCLRINPGNIGNEERIRMVVDCARDKNIPIRIGVNAGSLEKDLQEKYGEPTPQALLESAMRHVDHLDRLNFDQFKVSVKASDVFLAVESYRLLAKQIDQPLHLGITEAGGARSGAVKSAIGLGLLLSEGIGDTLRVSLAADPVEEIKVGFDILKSLRIRSRGINFIACPTCSRQEFDVIGTVNALEQRLEDIITPMDVSIIGCVVNGPGEALVSTLGVTGGNKKSGLYEDGVRKDRLDNNDMIDQLEARIRAKASQLDEARRIDVQQVEK | > 191 [active] |
| ispG L105Q (protein) MHNQAPIQRRKSTRIYVGNVPIGDGAPIAVQSMTNTRTTDVEATVNQIKALERVGADIVRVSVPTMDAAEAFKLIKQQVNVPLVADIHFDYRIALKVAEYGVDCQRINPGNIGNEERIRMVVDCARDKNIPIRIGVNAGSLEKDLQEKYGEPTPQALLESAMRHVDHLDRLNFDQFKVSVKASDVFLAVESYRLLAKQIDQPLHLGITEAGGARSGAVKSAIGLGLLLSEGIGDTLRVSLAADPVEEIKVGFDILKSLRIRSRGINFIACPTCSRQEFDVIGTVNALEQRLEDIITPMDVSIIGCVVNGPGEALVSTLGVTGGNKKSGLYEDGVRKDRLDNNDMIDQLEARIRAKASQLDEARRIDVQQVEK | 0.541 ± 0.73 |
| ispD V104P (protein) MATTHLDVCAVVPAAGFGRRMQTECPKQYLSIGNQTILEHSVHALLAHPRVKRVVIAISPGDSRFAQLPLANHPQITVVDGGDERADSVLAGLKAAGDAQWVLPHDAARPCLHQDDLARLLALSETSRTGGILAAPVRDTMKRAEPGKNAIAHTVDRNGLWHALTPQFFPRELLHDCLTRALNEGATITDEASALEYCGFHPQLVEGRADNIKVTRPEDLALAEFYLTRTIHQENT | < 0.0171 |
| ispB L110Q (protein) MNLEKINELTAQDMAGVNAAILEQLNSDVQLINQLGYYIVSGGGKRIRPMIAVLAARAVGYEGNAHVTIAALIEFIHTATLLHDDVVDESDMRRGKATANAAFGNAASVQVGDFIYTRAFQMMTSLGSLKVLEVMSEAVNVIAEGEVLQLMNVNDPDITEENYMRVIYSKTARLFEAAAQCSGILAGCTPEEEKGLQDYGRYLGTAFQLIDDLLDYNADGEQLGKNVGDDLNEGKPTLPLLHAMHHGTPEQAQMIRTAIEQGNGRHLLEPVLEAMNACGSLEWTRQRAEEEADKAIAALQVLPDTPWREALIGLAHIAVQRDR | > 1450 [active] |
| ispB L132Q (protein) MNLEKINELTAQDMAGVNAAILEQLNSDVQLINQLGYYIVSGGGKRIRPMIAVLAARAVGYEGNAHVTIAALIEFIHTATLLHDDVVDESDMRRGKATANAAFGNAASVLVGDFIYTRAFQMMTSLGSLKVQEVMSEAVNVIAEGEVLQLMNVNDPDITEENYMRVIYSKTARLFEAAAQCSGILAGCTPEEEKGLQDYGRYLGTAFQLIDDLLDYNADGEQLGKNVGDDLNEGKPTLPLLHAMHHGTPEQAQMIRTAIEQGNGRHLLEPVLEAMNACGSLEWTRQRAEEEADKAIAALQVLPDTPWREALIGLAHIAVQRDR | < 0.0135 |
| kdsA I93A (protein) MKQKVVSIGDINVANDLPFVLFGGMNVLESRDLAMRICEHYVTVTQKLGIPYVFKASFDKANRSSIHSYRGPGLEEGMKIFQELKQTFGVKIATDVHEPSQAQPVADVVDVIQLPAFLARQTDLVEAMAKTGAVINVKKPQFVSPGQMGNIVDKFKEGGNEKVILCDRGANFGYDNLVVDMLGFSIMKKVSGNSPVIFDVTHALQCRDPFGAASGGRRAQVAELARAGMAVGLAGLFIEAHPDPEHAKCDGPSALPLAKLEPFLKQMKAIDDLVKGFEELDTSK | < 0.0181 |
| ispF L153A (protein) MRIGHGFDVHAFGGEGPIIIGGVRIPYEKGLLAHSDGDVALHALTDALLGAAALGDIGKLFPDTDPAFKGADSRELLREAWRRIQAKGYTLGNVDVTIIAQAPKMLPHIPQMRVFIAEDLGCHMDDVNVKATTTEKLGFTGRGEGIACEAVAALIKATK | < 0.00152 |
| ispF L153W (protein) MRIGHGFDVHAFGGEGPIIIGGVRIPYEKGLLAHSDGDVALHALTDALLGAAALGDIGKLFPDTDPAFKGADSRELLREAWRRIQAKGYTLGNVDVTIIAQAPKMLPHIPQMRVFIAEDLGCHMDDVNVKATTTEKLGFTGRGEGIACEAVAWLIKATK | < 0.00375 |
| ispF L153Q (protein) MRIGHGFDVHAFGGEGPIIIGGVRIPYEKGLLAHSDGDVALHALTDALLGAAALGDIGKLFPDTDPAFKGADSRELLREAWRRIQAKGYTLGNVDVTIIAQAPKMLPHIPQMRVFIAEDLGCHMDDVNVKATTTEKLGFTGRGEGIACEAVAQLIKATK | 0.0209 ± 0.022 |
